# Test results published in PMC9911399, “Two distinct binding modes provide the RNA-binding protein RbFox with extraordinary sequence specificity”.
# Residue numbers refer to the chain shown, from its start. The list shows a part of the results.
# T1: RBFOX1 RRM RbFoxmut (Fox-RRM*) (Homo sapiens, UniProt Q9NWB1 109-208, R118D;E147R;N151S;E152T)
# T1 sequence: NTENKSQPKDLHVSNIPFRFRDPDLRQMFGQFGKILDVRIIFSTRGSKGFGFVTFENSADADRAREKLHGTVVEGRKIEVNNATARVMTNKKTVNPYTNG
# B1: AGAAGAA (DNA:RNA)
# RNA: GGGAGACCGGAAUUCAGAUUGUCCAGAAGAAUUAAAUCCCGUCGUAGCCACCA
# DNA 1: CAATCTGAATTCCGGTCTCCC
# DNA 2: TGGTGGCTACGACGGGATT
# B2: AAUAGCC (DNA:RNA)
# RNA: B1 RNA with G26A, A27U, A30C, A31C
# DNA 1: CAATCTGAATTCCGGTCTCCC
# DNA 2: TGGTGGCTACGACGGGATT
# B3: UGCGUAC (DNA:RNA)
# RNA: B1 RNA with A25U, A27C, A28G, G29U, A31C
# DNA 1: CAATCTGAATTCCGGTCTCCC
# DNA 2: TGGTGGCTACGACGGGATT
# B4: CACACUC (DNA:RNA)
# RNA: B1 RNA with A25C, G26A, A27C, G29C, A30U, A31C
# DNA 1: CAATCTGAATTCCGGTCTCCC
# DNA 2: TGGTGGCTACGACGGGATT
# B5: UAGAAAC (DNA:RNA)
# RNA: B1 RNA with A25U, G26A, A27G, G29A, A31C
# DNA 1: CAATCTGAATTCCGGTCTCCC
# DNA 2: TGGTGGCTACGACGGGATT
# B6: UGACGUA (DNA:RNA)
# RNA: B1 RNA with A25U, A28C, A30U
# DNA 1: CAATCTGAATTCCGGTCTCCC
# DNA 2: TGGTGGCTACGACGGGATT
# B7: UGAUUUG (DNA:RNA)
# RNA: B1 RNA with A25U, A28U, G29U, A30U, A31G
# DNA 1: CAATCTGAATTCCGGTCTCCC
# DNA 2: TGGTGGCTACGACGGGATT
# B8: UUACAAC (DNA:RNA)
# RNA: B1 RNA with A25U, G26U, A28C, G29A, A31C
# DNA 1: CAATCTGAATTCCGGTCTCCC
# DNA 2: TGGTGGCTACGACGGGATT
# B9: GUGAGCA (DNA:RNA)
# RNA: B1 RNA with A25G, G26U, A27G, A30C
# DNA 1: CAATCTGAATTCCGGTCTCCC
# DNA 2: TGGTGGCTACGACGGGATT
# B10: GCUUUGG (DNA:RNA)
# RNA: GGGAGACCGGAAUUCAGAUUGUCCGCUUUGGUUAAAUCCCGUCGUAGCCACCA
# DNA 1: CAATCTGAATTCCGGTCTCCC
# DNA 2: TGGTGGCTACGACGGGATT
# B11: UACGUCA (DNA:RNA)
# RNA: B1 RNA with A25U, G26A, A27C, A28G, G29U, A30C
# DNA 1: CAATCTGAATTCCGGTCTCCC
# DNA 2: TGGTGGCTACGACGGGATT
# B12: AAUACGA (DNA:RNA)
# RNA: B1 RNA with G26A, A27U, G29C, A30G
# DNA 1: CAATCTGAATTCCGGTCTCCC
# DNA 2: TGGTGGCTACGACGGGATT
# B13: GGUUACA (DNA:RNA)
# RNA: B10 RNA with C26G, U29A, G30C, G31A
# DNA 1: CAATCTGAATTCCGGTCTCCC
# DNA 2: TGGTGGCTACGACGGGATT
# B14: UACUCUA (DNA:RNA)
# RNA: B1 RNA with A25U, G26A, A27C, A28U, G29C, A30U
# DNA 1: CAATCTGAATTCCGGTCTCCC
# DNA 2: TGGTGGCTACGACGGGATT
# B15: UAGUGUG (DNA:RNA)
# RNA: B10 RNA with G25U, C26A, U27G, U29G, G30U
# DNA 1: CAATCTGAATTCCGGTCTCCC
# DNA 2: TGGTGGCTACGACGGGATT
# B16: AACCCGC (DNA:RNA)
# RNA: B1 RNA with G26A, A27C, A28C, G29C, A30G, A31C
# DNA 1: CAATCTGAATTCCGGTCTCCC
# DNA 2: TGGTGGCTACGACGGGATT
# B17: UGUGGAC (DNA:RNA)
# RNA: B1 RNA with A25U, A27U, A28G, A31C
# DNA 1: CAATCTGAATTCCGGTCTCCC
# DNA 2: TGGTGGCTACGACGGGATT
# B18: AAAGAUU (DNA:RNA)
# RNA: B1 RNA with G26A, A28G, G29A, A30U, A31U
# DNA 1: CAATCTGAATTCCGGTCTCCC
# DNA 2: TGGTGGCTACGACGGGATT
# B19: UGUGGCG (DNA:RNA)
# RNA: B1 RNA with A25U, A27U, A28G, A30C, A31G
# DNA 1: CAATCTGAATTCCGGTCTCCC
# DNA 2: TGGTGGCTACGACGGGATT
# B20: UACGCAU (DNA:RNA)
# RNA: B1 RNA with A25U, G26A, A27C, A28G, G29C, A31U
# DNA 1: CAATCTGAATTCCGGTCTCCC
# DNA 2: TGGTGGCTACGACGGGATT
# B21: AACUUCG (DNA:RNA)
# RNA: B10 RNA with G25A, C26A, U27C, G30C
# DNA 1: CAATCTGAATTCCGGTCTCCC
# DNA 2: TGGTGGCTACGACGGGATT
# B22: CAGUUCC (DNA:RNA)
# RNA: B10 RNA with G25C, C26A, U27G, G30C, G31C
# DNA 1: CAATCTGAATTCCGGTCTCCC
# DNA 2: TGGTGGCTACGACGGGATT
# B23: GAAUCUC (DNA:RNA)
# RNA: B10 RNA with C26A, U27A, U29C, G30U, G31C
# DNA 1: CAATCTGAATTCCGGTCTCCC
# DNA 2: TGGTGGCTACGACGGGATT
# B24: CAUUCGU (DNA:RNA)
# RNA: B10 RNA with G25C, C26A, U29C, G31U
# DNA 1: CAATCTGAATTCCGGTCTCCC
# DNA 2: TGGTGGCTACGACGGGATT
# B25: GUCGGGG (DNA:RNA)
# RNA: B10 RNA with C26U, U27C, U28G, U29G
# DNA 1: CAATCTGAATTCCGGTCTCCC
# DNA 2: TGGTGGCTACGACGGGATT
# B26: UGCAGCG (DNA:RNA)
# RNA: B1 RNA with A25U, A27C, A30C, A31G
# DNA 1: CAATCTGAATTCCGGTCTCCC
# DNA 2: TGGTGGCTACGACGGGATT
# B27: CAUCGGG (DNA:RNA)
# RNA: B10 RNA with G25C, C26A, U28C, U29G
# DNA 1: CAATCTGAATTCCGGTCTCCC
# DNA 2: TGGTGGCTACGACGGGATT
# B28: GGGUUCC (DNA:RNA)
# RNA: B10 RNA with C26G, U27G, G30C, G31C
# DNA 1: CAATCTGAATTCCGGTCTCCC
# DNA 2: TGGTGGCTACGACGGGATT
# B29: GAUCCGA (DNA:RNA)
# RNA: B10 RNA with C26A, U28C, U29C, G31A
# DNA 1: CAATCTGAATTCCGGTCTCCC
# DNA 2: TGGTGGCTACGACGGGATT
# B30: UUUUAAC (DNA:RNA)
# RNA: B10 RNA with G25U, C26U, U29A, G30A, G31C
# DNA 1: CAATCTGAATTCCGGTCTCCC
# DNA 2: TGGTGGCTACGACGGGATT
# B31: AAUUGGA (DNA:RNA)
# RNA: B1 RNA with G26A, A27U, A28U, A30G
# DNA 1: CAATCTGAATTCCGGTCTCCC
# DNA 2: TGGTGGCTACGACGGGATT
# Target: T1, RBFOX1 RRM RbFoxmut (Fox-RRM*)
# Experiment: EMSA; HiTS-Eq, 1 nM pool, 10 min; buffer printed only for the single-RNA assays: 10 mM Tris pH 7.5, 150 mM NaCl, 3.4 mM EDTA, 0.001% NP-40, 30 C
# Conditions: tags: His6 N-terminal (pET28a); label: 5' 32P
# Summary of the method: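 Relative association constants, normalised to the cognate motif, were derived by comparing read counts of each RNA species with those of the control reaction. The RNA sequenced was the free fraction, separated by 8% native PAGE after a 10 min equilibration in 50 µL of 1 nM 5′-radiolabelled RNA (7 randomized nucleotides) with increasing concentrations of purified wild-type or mutant RbFox RRM.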
row,Binder,binding signal
1,B1,0.125 KA relative to UGCAUGU
2,B2,0.0767 KA relative to UGCAUGU
3,B3,0.133 KA relative to UGCAUGU
4,B4,0.0347 KA relative to UGCAUGU
5,B5,0.0822 KA relative to UGCAUGU
6,B6,0.138 KA relative to UGCAUGU
7,B7,0.168 KA relative to UGCAUGU
8,B8,0.0707 KA relative to UGCAUGU
9,B9,0.163 KA relative to UGCAUGU
10,B10,0.115 KA relative to UGCAUGU
11,B11,0.0951 KA relative to UGCAUGU
12,B12,0.069 KA relative to UGCAUGU
13,B13,0.0832 KA relative to UGCAUGU
14,B14,0.115 KA relative to UGCAUGU
15,B15,0.21 KA relative to UGCAUGU
16,B16,0.0881 KA relative to UGCAUGU

row,Binder,binding signal
1,B17,0.0671 KA relative to UGCAUGU
2,B18,0.0888 KA relative to UGCAUGU
3,B19,0.174 KA relative to UGCAUGU
4,B20,0.0843 KA relative to UGCAUGU
5,B21,0.09 KA relative to UGCAUGU
6,B22,0.113 KA relative to UGCAUGU
7,B23,0.156 KA relative to UGCAUGU
8,B24,0.131 KA relative to UGCAUGU
9,B25,0.101 KA relative to UGCAUGU
10,B26,0.154 KA relative to UGCAUGU
11,B27,0.0665 KA relative to UGCAUGU
12,B28,0.166 KA relative to UGCAUGU
13,B29,0.085 KA relative to UGCAUGU
14,B30,0.0716 KA relative to UGCAUGU
15,B31,0.0424 KA relative to UGCAUGU
